Measured values: patent US20220306748A1 (SHINE ON BIOMEDICAL, published 2022)

Tests used:
[1] = molecular target: T1, CD3ε (CD3 epsilon) recombinant protein (UniProt P07766 23-126, limits assumed); assay: SPR kinetics (BIAcore T200), CD3ε as immobilised ligand, analyte 28.125-3600 nM, flow 15 µL/min, association 350 s, dissociation 900 s
T1 construct: The method says 'CD3 recombinant protein', while the legend and the result say CD3ε

[2] = molecular target: programmed cell death ligand 1 (PD-L1) recombinant protein (UniProt Q9NZQ7 fragment, limits assumed); assay: SPR kinetics (BIAcore T200), PD-L1 as immobilised ligand, analyte 0.78125-100 nM, flow 30 µL/min, association 120 s, dissociation 900 s
Sequence of UniProt Q9NZQ7 (Q9NZQ7 19-238 limits assumed): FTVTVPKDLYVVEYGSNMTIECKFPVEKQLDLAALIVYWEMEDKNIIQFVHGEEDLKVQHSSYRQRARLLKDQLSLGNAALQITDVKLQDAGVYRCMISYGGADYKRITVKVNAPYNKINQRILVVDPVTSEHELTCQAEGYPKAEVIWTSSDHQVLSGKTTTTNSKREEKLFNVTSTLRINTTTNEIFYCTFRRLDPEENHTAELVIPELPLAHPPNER

T1 sequence (P07766 23-126 limits assumed): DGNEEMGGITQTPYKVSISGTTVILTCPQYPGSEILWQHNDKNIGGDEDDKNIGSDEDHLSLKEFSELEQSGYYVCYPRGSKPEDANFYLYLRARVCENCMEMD

B1: PD-L1×HLA-G×CD3ε nanobody-based triple specific T-cell engager (PD-L1×HLA-G×CD3ε nanobody-based TriTE) (Fc fusion)
chain: HVQLVESGGGLVQPGGSLRISCAASGFTFSSRAMSWVRQAPGKGLEWVSTINSDGSNTYYSDSVKDRFTISRDNAINTLYLQLNSLKTEDTAMYYCSRCPDIYCGGQYTYRGQGTQVTVSSGGGGSGGGGSGGGGSHVQLVESGGGSVQAGGSLKLSCVTSAYTFSASGNCMGWLRQAPGKGREGIAATYTRSAKTYYADSVKGRFTISQDNAKNTVYLQMNGLKPEDTATYYCAVARCAGRPDRSTLTSFAWWGQGTQVTVSSHVQLVESGGGSVQAGGSLRLSCTVSGVIFKNEYMGWFRQAPGKEREGVAAASPGGTITYYGDSVKGRFTISRDNAKNTVYLQMNRLKPEDTAMYYCALDPSTTSWSIIRHGPSLWRYSGRGTQVTVSS[letters of human IgG1 Fc with V279Y (EU numbers) left out]
notes: The order of the parts follows the listing in the text (signal peptide, VHH1, flexible linker, VHH2, VHH3, CH2-CH3); More linkers may stand between VHH2/VHH3 and VHH3/Fc; also called Nb-TriTE; immunomodulation and anti-tumor-related nanobody
**Q.** For B1, which koff [1] is on record?
**A.** The koff was 0.000173 s⁻¹.

**Q.** What about the kon [1] of the same binder?
**A.** The kon was 49800 M⁻¹ s⁻¹.

**Q.** What about the koff [2] of the same binder?
**A.** The koff was 0.000919 s⁻¹.

**Q.** What about the kon [2] of the same binder?
**A.** Its kon is 349000 M⁻¹ s⁻¹.
